Assay results taken from the supplement of paper PMC7580552.
Structures can show the parent of a compound that is named as a salt. The list shows a part of the results. Single values are uncertain, as repeats are few or missing.

test system: Escherichia coli W3110; experiment: planktonic growth (OD600) relative to untreated control; higher = more growth; conditions: 10 µM; 20-24 h; 30 °C; TB
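Also: stationary (unshaken) cultures in 96-well plates, started at OD600 0.05 from mid-exponential cells, with compounds supplied from DMSO stocks.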

Row | SMILES | planktonic growth [%]
1 | COc1ccc(CCN(C)CCCC(C#N)(c2ccc(OC)c(OC)c2)C(C)C)cc1OC (stereo not drawn) [Verapamil hydrochloride] | 91
2 | Cc1onc(-c2ccccc2)c1-c1ccc(S(N)(=O)=O)cc1 [Valdecoxib] | 94
3 | CCCc1cc(=O)[nH]c(=S)[nH]1 [Propylthiouracil] | 88
4 | C[C@]12CCC(=O)C=C1CC[C@@H]1[C@@H]2[C@@H](O)C[C@@]2(C)[C@H]1CC[C@]2(O)C(=O)CO [Hydrocortisone base] | 108
5 | CCCCCCC[N+](CC)(CC)CCCCc1ccc(Cl)cc1 [Clofilium tosylate] | 104
6 | CNCCCC1c2ccccc2C=Cc2ccccc21 [Protriptyline hydrochloride] | 102
7 | Oc1ncnc2[nH]ncc12 [Allopurinol] | 92
8 | COc1cccc2c1C(=O)c1c(O)c3c(c(O)c1C2=O)C[C@@](O)(C(=O)CO)C[C@@H]3O[C@H]1C[C@H](N)[C@H](O)[C@H](C)O1 [Doxorubicin hydrochloride] | 99
9 | CCC(=O)O[C@@H](O[P@](=O)(CCCCc1ccccc1)CC(=O)N1C[C@H](C2CCCCC2)C[C@H]1C(=O)O)C(C)C [Fosinopril] | 97
10 | CC1(C)S[C@@H]2[C@H](NC(=O)[C@H](N)c3ccc(O)cc3)C(=O)N2[C@H]1C(=O)O [Amoxicillin] | 74
11 | OCCOCCN1CCN(C2=Nc3ccccc3Sc3ccccc32)CC1 [Quetiapine hemifumarate] | 82
12 | Nc1nc(Cl)nc2c1ncn2[C@H]1C[C@H](O)[C@@H](CO)O1 [Cladribine] | 104
13 | CN[C@@H]1[C@H](O[C@H]2[C@H](O[C@H]3[C@H](O)[C@@H](O)[C@H](N=C(N)N)[C@@H](O)[C@@H]3N=C(N)N)O[C@@H](C)[C@]2(O)C=O)O[C@@H](CO)[C@H](O)[C@H]1O [Streptomycin sulfate] | 44
14 | Fc1ccc(C(c2ccc(F)cc2)N2CCN(C/C=C/c3ccccc3)CC2)cc1 [Flunarizine dihydrochloride] | 106
15 | N=C(N)c1ccc(OCCCCCOc2ccc(C(=N)N)cc2)cc1 [Pentamidine isethionate] | 100
16 | Cn1c(NCCN(CCO)CCCc2ccc([N+](=O)[O-])cc2)cc(=O)n(C)c1=O [Nifekalant] | 92
17 | CCCCC(=O)O[C@H]1CC[C@H]2[C@@H]3CCc4cc(O)ccc4[C@H]3CC[C@]12C [Estradiol Valerate] | 103
18 | CC(C(=O)O)c1cccc(C(=O)c2ccccc2)c1 (stereo not drawn) [Ketoprofen] | 96
19 | CCCC1O[C@@H]2C[C@H]3[C@@H]4CCC5=CC(=O)C=C[C@]5(C)[C@H]4[C@@H](O)C[C@]3(C)[C@]2(C(=O)CO)O1 (stereo partly drawn) [Budesonide] | 92
20 | COc1ccc(C(=O)CC(=O)c2ccc(C(C)(C)C)cc2)cc1 [Avobenzone] | 101
21 | COc1ncnc(NS(=O)(=O)c2ccc(N)cc2)c1OC [Sulfadoxine] | 66
22 | CC(=O)OCC(=O)[C@@]1(O)[C@H](C)C[C@H]2[C@@H]3CCC4=CC(=O)C=C[C@]4(C)[C@@]3(F)[C@@H](O)C[C@@]21C [Dexamethasone acetate] | 110
23 | COc1c(N2C[C@@H]3CCCN[C@@H]3C2)c(F)cc2c(=O)c(C(=O)O)cn(C3CC3)c12 [Moxifloxacin] | 27

Row | SMILES | planktonic growth [%]
24 | COc1ccc(C(=O)c2ccccc2)c(O)c1 [Oxybenzone] | 102
25 | CCCCCN(CCCCC)C(=O)C(CCC(=O)O)NC(=O)c1ccc(Cl)c(Cl)c1 (stereo not drawn) [Lorglumide sodium salt] | 95
26 | CC(C)(C)NC(=O)[C@@H]1C[C@@H]2CCCC[C@@H]2CN1C[C@@H](O)[C@H](Cc1ccccc1)NC(=O)[C@H](CC(N)=O)NC(=O)c1ccc2ccccc2n1 [Saquinavir mesylate] | 97
27 | Nc1nc2c(ncn2COCCO)c(=O)[nH]1 [Acyclovir] | 109
28 | CCCCN(CCCC)CCC(O)c1cc2c(Cl)cc(Cl)cc2c2cc(C(F)(F)F)ccc12 (stereo not drawn) [Halofantrine hydrochloride] | 107
29 | C#C[C@]1(O)CC[C@H]2[C@@H]3CCc4cc(O)ccc4[C@H]3CC[C@@]21C [Ethinylestradiol] | 104
30 | CCOc1cc(CC(=O)N[C@@H](CC(C)C)c2ccccc2N2CCCCC2)ccc1C(=O)O [Repaglinide] | 104
31 | CCOC(=O)C1=C(C)NC(C)=C(C(=O)OCC)C1c1ccccc1/C=C/C(=O)OC(C)(C)C [Lacidipine] | 92
32 | C/C(=C(\CCOP(=O)(O)O)SC(=O)c1ccccc1)N(C=O)Cc1cnc(C)nc1N [Benfotiamine] | 94
33 | CCN(CC)C(=S)SSC(=S)N(CC)CC [Disulfiram] | 91
34 | Nc1c2c(nc3ccccc13)CCCC2 [Tacrine hydrochloride] | 109
35 | COC(=O)C1=C(C)NC(C)=C(C(=O)OC2CCCN(Cc3ccccc3)C2)C1c1cccc([N+](=O)[O-])c1 (stereo not drawn) [Benidipine hydrochloride] | 110
36 | CCNC(=O)CCC/C=C\C[C@@H]1[C@@H](/C=C/[C@@H](O)CCc2ccccc2)[C@H](O)C[C@@H]1O [Bimatoprost] | 97
37 | C[C@]12C[C@H](O)[C@H]3[C@@H](CCC4=CC(=O)CC[C@@]43C)[C@@H]1CC[C@@H]2C(=O)CO [Corticosterone] | 101
38 | CC[C@H]1OC(=O)C[C@@H](O)[C@H](C)[C@@H](O[C@@H]2O[C@H](C)[C@@H](O[C@H]3C[C@@](C)(O)[C@@H](O)[C@H](C)O3)[C@H](N(C)C)[C@H]2O)[C@@H](CC=O)C[C@@H](C)C(=O)/C=C/C(C)=C/[C@@H]1CO[C@@H]1O[C@H](C)[C@@H](O)[C@@H](OC)[C@H]1OC [Tylosin] | 95
39 | O=C(CCCCCCC(=O)Nc1ccccc1)NO [Vorinostat] | 95
40 | CC1(C)O[C@@H]2C[C@H]3[C@@H]4CCC5=CC(=O)C=C[C@]5(C)[C@H]4[C@@H](O)C[C@]3(C)[C@]2(C(=O)CO)O1 [Desonide] | 103
41 | CCOC(=O)n1ccn(C)c1=S [Carbimazole] | 98
42 | O=C1CN(/N=C/c2ccc(-c3ccc([N+](=O)[O-])cc3)o2)C(=O)N1 [Dantrolene sodium salt] | 100
43 | Cc1cc(NS(=O)(=O)c2ccc(N)cc2)no1 [Sulfamethoxazole] | 59
44 | CN[C@@H]1[C@@H](O)[C@@H](O[C@@H]2[C@@H](O)[C@H](O[C@H]3OC(CN)=CC[C@H]3N)[C@@H](N)C[C@H]2N)OC[C@]1(C)O [Sisomicin sulfate] | 72
45 | CC1(C)S[C@@H]2[C@H](NC(=O)[C@H](C(=O)O)c3ccsc3)C(=O)N2[C@H]1C(=O)O [Ticarcillin sodium] | 83
46 | Cc1ccccc1OCC(O)CO (stereo not drawn) [Mephenesin] | 95

Row | SMILES | planktonic growth [%]
47 | O=C1CN(/N=C/c2ccc([N+](=O)[O-])o2)C(=O)N1 [Nitrofurantoin] | 88
48 | CCN(CC)CCOC(=O)C(Cc1cccc2ccccc12)CC1CCCO1 (stereo not drawn) [Nafronyl oxalate] | 90
49 | C[C@H](N)[C@H](O)c1cccc(O)c1 [Metaraminol bitartrate] | 94
50 | CC(C)n1c(/C=C/C(O)CC(O)CC(=O)O)c(-c2ccc(F)cc2)c2ccccc21 (stereo not drawn) [Fluvastatin sodium salt] | 96
51 | CC(=O)Oc1ccccc1C(=O)Oc1ccccc1C(=O)O [Acetylsalicylsalicylic acid] | 91
52 | CCCCNc1cc(C(=O)O)cc(S(N)(=O)=O)c1Oc1ccccc1 [Bumetanide] | 91
53 | CNC(=O)c1c(I)c(C(=O)NCC(=O)Nc2c(I)c(C(=O)O)c(I)c(C(=O)NCCO)c2I)c(I)c(N(C)C(C)=O)c1I [Ioxaglic acid] | 97
54 | Nc1ccc(S(=O)(=O)Nc2cnc3ccccc3n2)cc1 [Sulfaquinoxaline sodium salt] | 65
55 | CNC[C@H](O)[C@@H](O)[C@H](O)[C@H](O)CO [Meglumine] | 105
56 | NC(=O)OCC(COC(N)=O)c1ccccc1 [Felbamate] | 91
57 | C[C@H]1NC(=O)NC1=O [Methylhydantoin-5-(D)] | 96
58 | Cc1ccnc(NS(=O)(=O)c2ccc(N)cc2)n1 [Sulfamerazine] | 66
59 | N=C(N)NCc1cccc(I)c1 [Iobenguane sulfate] | 92
60 | CC(=O)O[C@H]1C[C@@]2(C)[C@@H](C[C@@H](O)[C@H]3[C@@]4(C)CC[C@@H](O)[C@@H](C)[C@@H]4CC[C@@]32C)/C1=C(\CCC=C(C)C)C(=O)O [Fusidic acid sodium salt] | 89
61 | CC(=O)N[C@@H](CS)C(=O)O [Acetylcysteine] | 93
62 | CN(C)CCn1nnnc1SCC1=C(C(=O)O)N2C(=O)[C@@H](NC(=O)Cc3csc(N)n3)[C@H]2SC1 [Cefotiam hydrochloride] | 17
63 | CC[C@H](C)C(=O)O[C@H]1C[C@@H](C)C=C2C=C[C@H](C)[C@H](CC[C@@H]3C[C@@H](O)CC(=O)O3)[C@H]21 [Lovastatin] | 99
64 | Cc1c(C)c2c(c(C)c1O)CCC(C)(C(=O)O)O2 (stereo not drawn) [Trolox] | 107
65 | CCN(CC)CCOC(=O)c1ccc(N)cc1 [Procaine hydrochloride] | 115
66 | CCN(CC)C(=O)/C(C#N)=C/c1cc(O)c(O)c([N+](=O)[O-])c1 [Entacapone] | 111
67 | C[C@]12C=CC(=O)C=C1CC[C@H]1[C@@H]3C[C@@H](O)[C@](O)(C(=O)CO)[C@@]3(C)C[C@H](O)[C@@]12F [Triamcinolone] | 97
68 | CC1(C)O[C@@H]2C[C@H]3[C@@H]4CCC5=CC(=O)CC[C@]5(C)[C@@]4(F)[C@@H](O)C[C@]3(C)[C@]2(C(=O)CCl)O1 [Halcinonide] | 95
